Laboratory results as given in PubChem BioAssay (NCATS).
The inconclusive results got no clear call from the source; some entries with a clear call stand among them for comparison. For some of these results: Potencies of inconclusive entries are left out as doubtful fits. Calls of active or inactive are those of the source. Unless noted, calls come from the whole dose curve; as a rule, active = well fitted curve in the direction sought with a large enough effect; inconclusive = small, poorly fitted or top-dose-only effect, or another doubt; inactive = no such curve, though single readings can be large; an effect the other way counts as inactive or inconclusive.

Experiments:
[1] = NFAT Signaling Pathway (AID 444; active = well fitted curve in either direction with a large enough effect, not every such curve was filed as active; inconclusive = small, poorly fitted or top-dose-only effect, or another doubt;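 note: carbachol stimulus at about its EC50 of 1 µM final; % is set by controls: 0 for no effect and ±100 for the full control effect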); settings: Jurkat NFAT-bla M1, carbachol, beta-lactamase ratio, 5 h; at 7.69 µM (top of the series) unless noted
How it was run: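 Jurkat cells with NFAT-driven β-lactamase reporter and co-expressed M1 receptor, stimulated with carbachol (final 1 uM, ~EC50), compound titration, 5 h at 37 °C. CCF4 loaded 1 h at RT; 460/530 nm ratio gave %activity and AC50.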

[2] = Stat Signaling Pathway (AID 446; active = well fitted curve in either direction with a large enough effect, not every such curve was filed as active; inconclusive = small, poorly fitted or top-dose-only effect, or another doubt;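 note: ME-180 cervical cancer cells given 40 pM IL-6 alongside compound; SIE-controlled beta-lactamase reporter measured as 460/530 nm FRET emission ratio; top concentration of the series differs between compounds; % is set by controls: 0 for no effect and ±100 for the full control effect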); settings: ME-180 SIE beta-lactamase reporter, IL-6 stimulated, 5 h; at 7.69 µM (top of the series) unless noted
How it was run: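 Reporter line: ME-180 cervical carcinoma, SIE-beta-lactamase. Treatment: compound with 40 pM IL-6, 5 hrs, 37 C, in low-serum OPTI-MEM with 10 mM HEPES pH 7.3. Detection: 460/530 nm fluorescence.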

[3] = target: Mitogen-activated protein kinase 10 (Mus musculus) (UniProt Q61831); assay: JNK3 AlphaScreen Assay (AID 530; active = well fitted curve in either direction with a large enough effect, not every such curve was filed as active; inconclusive = small, poorly fitted or top-dose-only effect, or another doubt;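 note: kinase came from lysate of stimulated human HepG2 cells; signal reports phosphorylation of biotinylated GST-cJun 1-79 at Ser73 with 10 µM ATP; potency is the fitted concentration of half-maximal effect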); settings: JNK3 lysate, c-Jun phosphorylation; activity change, negative = inhibition: at 57.1 µM (top of the series)
How it was run: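 Pre-activated (IL-1β/TNFα) JNK3 in HepG2 lysates phosphorylates biotin-GST-cJun(1-79), 10 uM ATP; anti-phospho-cJun(Ser73) AlphaScreen read at room temperature, pH 7.6 Tris buffer. Compounds pre-incubated 15 min as titrations.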

[4] = target: Cytochrome P450 3A4 (Homo sapiens) (UniProt P08684); assay: qHTS Assay for Inhibitors and Substrates of Cytochrome P450 3A4 (AID 884); settings: recombinant CYP3A4, Luciferin-PPXE luminescence; activity change, negative = inhibition: at 57.1 µM (top of the series); note: potency is the fitted concentration of half-maximal effect; nearly all actives have a fitted effect of over 50% in size
Chain of UniProt P08684 (P08684 whole entry, looked up): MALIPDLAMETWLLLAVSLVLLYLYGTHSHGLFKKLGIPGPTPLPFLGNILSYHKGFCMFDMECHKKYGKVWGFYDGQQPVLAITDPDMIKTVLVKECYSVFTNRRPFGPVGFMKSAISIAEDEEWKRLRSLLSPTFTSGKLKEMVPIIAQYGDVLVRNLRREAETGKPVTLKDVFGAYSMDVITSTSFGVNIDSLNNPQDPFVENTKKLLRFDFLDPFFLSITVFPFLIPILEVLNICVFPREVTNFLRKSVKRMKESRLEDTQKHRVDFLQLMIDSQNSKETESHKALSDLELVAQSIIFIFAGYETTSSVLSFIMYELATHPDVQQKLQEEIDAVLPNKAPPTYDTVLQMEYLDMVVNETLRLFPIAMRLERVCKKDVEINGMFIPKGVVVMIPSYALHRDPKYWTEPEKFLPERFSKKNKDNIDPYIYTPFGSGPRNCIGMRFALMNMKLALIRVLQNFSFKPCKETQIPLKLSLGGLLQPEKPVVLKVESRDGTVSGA
How it was run: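 20 nM human CYP3A4 with 25 uM Luciferin-PPXE (at KM) in 200 mM KPO4, preincubated 10 min with compound; NADPH regeneration started a 60 min RT reaction. Luciferin detected by luminescence, normalized to 57 uM ketoconazole as full inhibition.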

[5] = qHTS Assay for Identification of Small Molecule Agonists for Hypoxia Response Element Signaling Pathway (AID 914; active = well fitted activation curve with a large enough effect in the signal ratio, with a control signal flat, not every such curve was filed as active; inconclusive = small, poorly fitted or top-dose-only effect, or effect the other way, or a change in a side signal; the % refers to the signal ratio; note: potency is the fitted concentration of half-maximal effect); settings: ME-180 (cervical carcinoma) HRE-bla reporter, beta-lactamase ratio, CoCl2, 17 h; activation: hits give high values
How it was run: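 In Opti-MEM containing 0.5% dialyzed FBS and 10 mM HEPES, ME-180 HRE-bla cells received a compound titration and EC50 CoCl2. They were incubated 17 hours, then CCF4-loaded 2.5 hours at room temperature before ratio reading.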

[6] = target: Furin (Homo sapiens) (UniProt P09958); assay: Furin counterscreen qHTS for Zika virus inhibitors (AID 1347149); settings: furin enzymatic counterscreen, fluorogenic substrate; activity change, negative = inhibition: at 114 µM (top of the series); note: nearly all actives have a fitted effect of over 70% in size; note: potency is the fitted concentration of half-maximal effect;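 for activity change, negative = inhibition: purified recombinant full-length human furin enzyme at 5 nM; fluorescence gain from furin cutting a BOC-RVRR-AMC peptide substrate over 15 min; top concentration of the series differs between compounds; plate controls were no-inhibitor control for no effect and no-enzyme control for full effect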
Chain of UniProt P09958 (P09958 whole entry, looked up): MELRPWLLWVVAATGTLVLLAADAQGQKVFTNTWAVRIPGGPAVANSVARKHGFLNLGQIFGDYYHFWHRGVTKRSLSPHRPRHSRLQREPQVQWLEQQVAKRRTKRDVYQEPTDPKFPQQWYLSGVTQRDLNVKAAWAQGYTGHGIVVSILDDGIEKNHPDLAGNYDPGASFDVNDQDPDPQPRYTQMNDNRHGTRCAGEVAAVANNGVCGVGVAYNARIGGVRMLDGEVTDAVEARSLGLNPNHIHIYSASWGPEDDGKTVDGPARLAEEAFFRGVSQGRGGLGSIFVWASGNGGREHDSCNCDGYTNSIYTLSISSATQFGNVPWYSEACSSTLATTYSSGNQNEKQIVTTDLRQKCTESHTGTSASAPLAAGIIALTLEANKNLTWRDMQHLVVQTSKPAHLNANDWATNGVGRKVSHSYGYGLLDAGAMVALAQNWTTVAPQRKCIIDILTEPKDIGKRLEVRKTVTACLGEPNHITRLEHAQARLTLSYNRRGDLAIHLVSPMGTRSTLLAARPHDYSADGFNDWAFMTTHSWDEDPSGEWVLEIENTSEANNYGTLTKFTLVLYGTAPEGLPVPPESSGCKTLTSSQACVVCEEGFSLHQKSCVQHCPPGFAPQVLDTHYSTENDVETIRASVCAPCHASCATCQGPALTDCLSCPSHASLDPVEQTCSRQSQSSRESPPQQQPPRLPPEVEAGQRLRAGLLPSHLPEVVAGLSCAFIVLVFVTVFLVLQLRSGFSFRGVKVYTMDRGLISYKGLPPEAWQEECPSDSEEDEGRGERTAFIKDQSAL
How it was run: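 Fluorogenic cleavage of BOC-RVRR-AMC (2 microM final, Km ~15 µM) was monitored (ex 340, em 450 nm) at 37C after 15 min RT preincubation of 5 nM furin with compounds in HEPES pH 7.0 buffer with CaCl2 and Triton X-100. Percent inhibition was fitted to a 4-parameter Hill curve.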

[7] = ZIKV-mCherry secondary qHTS for Zika virus inhibitors (AID 1347158); settings: Vero cells, ZIKV-mCherry infection imaging, 48-72 h; activity change, negative = inhibition: at 49.2 µM (top of the series); note: potency is the fitted concentration of half-maximal effect; for activity change, negative = inhibition: top concentration of the series differs between compounds
How it was run: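 Vero, 5,000 cells/well, o/n 37 °C; cpd pin-transferred in DMSO; ZIKV-mCherry MOI 1, 48-72 h 37 °C; 32% PFA stock fix, Hoechst; imaged 10x DAPI/mCherry; mCherry+ threshold 450 RFU; % infection.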

[8] = Confirmatory screen NINDS Rhodamine qHTS for Zika virus inhibitors (AID 1347161); note: potency is the fitted concentration of half-maximal effect; nearly all actives have a fitted effect of over 60% in size
How it was run: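 Single-chain NS2B-NS3 protease, 25 nM, pH 8.0; compounds preincubated 15 min. Activity: Rhodamine110 release from 1.5 microM substrate over 15 min, room temperature, data fitted to 4-parameter Hill.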

[9] = test system: Zika virus NS2B-NS3 protease (linked construct); assay: 384 well plate NINDS Rhodamine confirmatory qHTS for Zika virus inhibitors (AID 1347164); note: potency is the fitted concentration of half-maximal effect; nearly all actives have a fitted effect of over 65% in size
How it was run: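 Cleavage of Ac-LKRR-Rhodamine 110 (10 microM final) by linked protease (final 5, 30 or 60 nM) was followed as fluorescence at 485/538 nm after 25 min, room temperature, dark. Compounds preincubated ~15 min.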

[10] = Tertiary RLuc qRT-PCR qHTS assay for Zika virus inhibitors (AID 1347169); note: potency is the fitted concentration of half-maximal effect; nearly all actives have a fitted effect of over 55% in size
How it was run: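 Inhibition of ZIKV-RLuc replication in Vero cells, read as Renilla luminescence 1-1.5 hrs after live-cell substrate addition, following 48-72 hrs infection at MOI 1-2 in presence of compound.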

[11] = Confirmatory screen GU Rhodamine qHTS for Zika virus inhibitors qHTS (AID 1347157); note: potency is the fitted concentration of half-maximal effect; nearly all actives have a fitted effect of over 70% in size
How it was run: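 Buffer 10 mM Tris-HCl pH 8.0, 0.01% Tween 20. Unlinked protease 25 nM; compound preincubation 15 min, RT, protected from light. Substrate Rhod110, 1.5 microM; ~15% conversion in 15 min.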

[12] = test system: Zika virus NS2B-NS3 protease (linked); assay: 384 well plate NINDS AMC confirmatory qHTS for Zika virus inhibitors (AID 1347163);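 note: fluorescence of AMC released from Ac-VKTGKR-AMC peptide cleaved by the protease; top concentration of the series differs between compounds; 0% = no-inhibitor control and -100% = no-enzyme control; nearly all actives have a fitted effect of over 50% in size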
How it was run: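 Linked NS2B-NS3 protease (final 5 nM, 30 nM or 60 nM) was preincubated with compounds (final up to 1 mM) for ~15 minutes. Ac-VKTGKR-AMC substrate (final 30 microM) then reacted for 25 minutes at room temperature in the dark. Fluorescence (ex 355/em 460 nm) was normalized to no-enzyme and no-inhibitor controls.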
Tags give direction and shape of the fitted curve or compound fluorescence and quenching.

## O=C(O)c1c(Br)c(Br)c(Br)c(Br)c1C1c2ccc(O)cc2Oc2cc(O)ccc21
[1]
  activity change, negative = inhibition: inactive: -6.47%
[2]
  activity, negative = inhibition: inconclusive: -96.1% [inhibitor]
[3]
  Potency: inconclusive [inhibitor, single point]
[4]
  Potency: inconclusive [inhibitor, partial curve]
[5]
  Potency: inconclusive [inhibitor, partial curve]
[6]
  Potency: inconclusive [inhibitor, full curve]
[7]
  Potency: inactive
[8]
  Potency: active: 891 nM
[9]
  Potency: inconclusive [inhibitor, full curve, poor fit]
[10]
  Potency: inconclusive [inhibitor, partial curve, poor fit]

## Cc1cc(NC(=O)c2ccc(Cl)c(Cl)c2)ccc1-c1cc2ccccc2oc1=O
[6]
  Potency: active: 66.3 µM
[7]
  Potency: inconclusive [inhibitor, full curve, poor fit]
[9]
  Potency: inconclusive [inhibitor, full curve, poor fit]

## CC(C)c1ccc(NC(=O)c2ccc3oc(=O)c(S(=O)(=O)c4ccc(F)cc4)cc3c2)cc1
[6]
  Potency: inactive
[11]
  Potency: inconclusive [inhibitor, partial curve]
[12]
  Potency: inactive
[9]
  Potency: inconclusive [inhibitor, single point]
[10]
  Potency: inconclusive [inhibitor, full curve, poor fit]

## CC(C)(C)c1ccc(S(=O)(=O)c2cnc(SCC(=O)Nc3ccc4c(c3)OCCO4)[nH]c2=O)cc1
[6]
  Potency: inconclusive [inhibitor, single point]
[7]
  Potency: inactive

## Clc1cc(OCc2nnc3sc(Cc4ccccc4)nn23)c(Cl)cc1OCc1nnc2sc(Cc3ccccc3)nn12
[6]
  Potency: inconclusive [inhibitor, partial curve]
[7]
  Potency: inconclusive [inhibitor, partial curve, poor fit]
